SMILES strings stand for the structures. The whole screen tested about 2,000 compounds, of which about 110 (5.5%) showed an effect of 50% or more. This is one part of the list.

Data on 21 compounds can be found in ChEMBL document CHEMBL5606460, “ASAP - DENV-2 NS2B-NS3 protease fluorescence single point” (2024).

The assay deals with Genome polyprotein (dengue virus type 2) (UniProt P29990).
[1] abbreviates: Thailand/16681/1984, Concentration 25.0 uM, Number of replicates 1.0.

In the case of `COc1ccc(NC(=O)C2CCN(c3ccc(C=O)cc3)CC2)cc1C(F)(F)F`, the inhibition (commonly the change of the read-out against control, counted positive when it falls) under setting [1] turned out to be 1.29%.
Take `Nc1nccc(N2CCN(c3ncnc4sccc34)CC2)n1`: the inhibition (Thailand/16681/1984, Concentration 49.5 uM, Number of replicates 2.0, Standard deviation 1.3096000267472347 %) is -3.4%; the inhibition (Thailand/16681/1984, Concentration 99.01 uM, Number of replicates 2.0, Standard deviation 1.6640502179831234 %) is -2.5%; the inhibition (Thailand/16681/1984, Concentration 198.0 uM, Number of replicates 2.0, Standard deviation 1.511077135494772 %) was -2.22%.
In the case of `CNC(=O)c1ccccc1NS(=O)(=O)c1ccc(Oc2ccccc2Cl)cc1`, the inhibition runs as follows: (Thailand/16681/1984, Concentration 49.5 uM, Number of replicates 2.0, Standard deviation 0.8338499147497574 %) 0.494%; (Thailand/16681/1984, Concentration 99.01 uM, Number of replicates 2.0, Standard deviation 3.066215993073902 %) -2.05%; (Thailand/16681/1984, Concentration 198.0 uM, Number of replicates 2.0, Standard deviation 2.7475277663160753 %) -6.31%.
As for `O=Cc1ccc(N2CCC(C(=O)N3CCN(C(=O)C(F)(F)F)CC3)CC2)cc1`, the inhibition under setting [1] was 8.59%.
`Cc1c(Br)cccc1NC(=O)C1CCN(c2ccc(C=O)cc2)CC1`: the inhibition under setting [1] came out at 13%.
Take `Cc1cc(CO)c2cccc(C[C@H](NC(=O)C3(C(N)=O)CC3)C(=O)O)c2n1`: the inhibition (Thailand/16681/1984, Concentration 49.95 uM, Number of replicates 2.0, Standard deviation 0.8046436923600346 %) stood at 2.75% and the inhibition (Thailand/16681/1984, Concentration 99.9 uM, Number of replicates 2.0, Standard deviation 0.0905307562518242 %) worked out at 9.53%.
Take `Cc1cnccc1NC(=O)c1c(C)nn(Cc2ccccc2)c1Cl`: the inhibition runs as follows: (Thailand/16681/1984, Concentration 49.5 uM, Number of replicates 2.0, Standard deviation 0.09966271391867962 %) 1.84%; (Thailand/16681/1984, Concentration 99.01 uM, Number of replicates 2.0, Standard deviation 2.3644611293467452 %) 2.97%; (Thailand/16681/1984, Concentration 198.0 uM, Number of replicates 2.0, Standard deviation 3.1665773594952786 %) 6.07%.
With `COC(=O)c1cccc(C(=O)Nc2ccncc2C)c1`, the inhibition (Thailand/16681/1984, Concentration 49.5 uM, Number of replicates 2.0, Standard deviation 0.22567664905073445 %) was -4.08%; the inhibition (Thailand/16681/1984, Concentration 99.01 uM, Number of replicates 2.0, Standard deviation 0.2045809712592737 %) was -3.74%; the inhibition (Thailand/16681/1984, Concentration 198.0 uM, Number of replicates 2.0, Standard deviation 1.3054913833669988 %) was -2.98%.
Turning to `C[C@@H]1CN(CCNC(=O)C2CCN(c3ccc(C=O)cc3)CC2)C[C@H](C)O1`, the inhibition under setting [1] came to 12.7%.
In the case of `c1ccc2c(CN3CCC(n4cccn4)CC3)c[nH]c2c1`, the inhibition was -0.302% (Thailand/16681/1984, Concentration 49.5 uM, Number of replicates 2.0, Standard deviation 0.2206074895296473 %); 0.283% (Thailand/16681/1984, Concentration 99.01 uM, Number of replicates 2.0, Standard deviation 0.9760334935813729 %); 1.19% (Thailand/16681/1984, Concentration 198.0 uM, Number of replicates 2.0, Standard deviation 0.9595395140774529 %).
With `C[C@H](NC(=O)C1CCN(c2ccc(C=O)cc2)CC1)c1ccc2c(c1)CCCC2`, under setting [1], the inhibition is 4.81%.
For `COc1ccccc1N1CCN(C(=O)c2ccccc2Cc2cccc3c(CO)cc(C)nc23)CC1`, the inhibition reads like this: (Thailand/16681/1984, Concentration 49.95 uM, Number of replicates 2.0, Standard deviation 1.123252962265532 %) 6%; (Thailand/16681/1984, Concentration 99.9 uM, Number of replicates 2.0, Standard deviation 0.9888648698028478 %) 14.1%.
In the case of `NCc1cccc(NC(=O)C2CCN(C(=O)OCc3ccccc3)CC2)c1`, the inhibition was -7.14% (Thailand/16681/1984, Concentration 49.5 uM, Number of replicates 2.0, Standard deviation 1.518934319581567 %); -7.66% (Thailand/16681/1984, Concentration 99.01 uM, Number of replicates 2.0, Standard deviation 1.7880722930545534 %); -6.74% (Thailand/16681/1984, Concentration 198.0 uM, Number of replicates 2.0, Standard deviation 0.44046524984455854 %).
With `Cc1cnccc1NC(=O)c1ccccc1-n1cccn1`, the inhibition is -2.9% (Thailand/16681/1984, Concentration 49.5 uM, Number of replicates 2.0, Standard deviation 2.8850068243548517 %); -2.29% (Thailand/16681/1984, Concentration 99.01 uM, Number of replicates 2.0, Standard deviation 1.9964208553959129 %); -1.41% (Thailand/16681/1984, Concentration 198.0 uM, Number of replicates 2.0, Standard deviation 2.4957676128337067 %).
Take `COc1cc(C(=O)NCc2cccnc2)nc(N2CCNCC2)n1`: the inhibition by setting is: (Thailand/16681/1984, Concentration 49.5 uM, Number of replicates 2.0, Standard deviation 0.35920325992985613 %) -2.77%; (Thailand/16681/1984, Concentration 99.01 uM, Number of replicates 2.0, Standard deviation 0.5911788397842407 %) -1.14%; (Thailand/16681/1984, Concentration 198.0 uM, Number of replicates 2.0, Standard deviation 2.03373169021497 %) 0.395%.
As for `CC(C)Nc1nc2ccc(C(=O)Nc3cnn(C)c3)cc2[nH]1`, the inhibition was -4.41% (Thailand/16681/1984, Concentration 49.5 uM, Number of replicates 2.0, Standard deviation 2.031825556844216 %); -3.9% (Thailand/16681/1984, Concentration 99.01 uM, Number of replicates 2.0, Standard deviation 2.329776970420584 %); -0.813% (Thailand/16681/1984, Concentration 198.0 uM, Number of replicates 2.0, Standard deviation 2.6735671278500064 %).
As to `CNC(=O)c1cc(Cl)ccc1NS(=O)(=O)Cc1cc(C)no1`, the inhibition (Thailand/16681/1984, Concentration 49.5 uM, Number of replicates 2.0, Standard deviation 3.304459257112122 %) is -9.4%.
Take `Nc1ccc(-c2ccc3c(c2)OB(O)CC3)cn1`: the inhibition (Thailand/16681/1984, Concentration 49.5 uM, Number of replicates 2.0, Standard deviation 0.9472183886774751 %) was found to be 2.94%; the inhibition (Thailand/16681/1984, Concentration 99.01 uM, Number of replicates 2.0, Standard deviation 0.32641149450183415 %) worked out at 6.03%; the inhibition (Thailand/16681/1984, Concentration 198.0 uM, Number of replicates 2.0, Standard deviation 0.22333379003571086 %) amounted to 8.96%.
Regarding `Cc1nc(CNC(=O)c2[nH]c([C@H]3CCCNC3)nc2C)c[nH]1`, the inhibition was -0.795% (Thailand/16681/1984, Concentration 49.5 uM, Number of replicates 2.0, Standard deviation 1.3308066666541125 %); 0.241% (Thailand/16681/1984, Concentration 99.01 uM, Number of replicates 2.0, Standard deviation 0.19197328416791432 %); 1.17% (Thailand/16681/1984, Concentration 198.0 uM, Number of replicates 2.0, Standard deviation 0.41151993225218636 %).
Turning to `Cc1cc(CO)c2cccc(NC(=O)CNC3CC3)c2n1`, the inhibition is, setting by setting: (Thailand/16681/1984, Concentration 49.95 uM, Number of replicates 2.0, Standard deviation 1.6119901778213759 %) 15.9%; (Thailand/16681/1984, Concentration 99.9 uM, Number of replicates 2.0, Standard deviation 1.4451149573517064 %) 30.7%.
With `Cc1cc(CO)c2cccc(NC(=O)[C@H]3CCNC3)c2n1`, the inhibition (Thailand/16681/1984, Concentration 49.95 uM, Number of replicates 2.0, Standard deviation 1.8979597481282788 %) was -0.539% and the inhibition (Thailand/16681/1984, Concentration 99.9 uM, Number of replicates 2.0, Standard deviation 1.976292784952565 %) is 2.99%.
